± gives the standard deviation of the averaged measurements. The list shows a part of the results.
system: PfAP2-G AP2 domain (GST-tagged); assay: gcPBM binding intensity (ln(normalized median fluorescence intensity)); higher = stronger DNA binding
Summary of the method: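 GST-tagged P. falciparum DNA-binding domains, expressed in E. coli (about 25 μg on average), were applied for 1 h to an Agilent 4 × 180k array of primer-extended double-stranded 36-bp intergenic genomic probes plus negative controls. The binding buffer was 1× PBS with 1% milk, 0.2 mg/ml BSA, 0.5% salmon testes DNA and 0.03% Triton X-100. Bound protein was detected with Alexa488 anti-GST antibody and scanned at 488 nm. Binding intensity is the highest Masliner-normalised natural-log median intensity across replicate spots of either probe orientation.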

Row | Sequence | gcPBM binding intensity (ln)
1 | ATATATATATTTTGGTAGCACCTCCTTTTTTTTTTT | 9.88 ± 0.12
2 | ATATGCCTAATAAAATGTACGTTTGTTTTATTTATT [XGTACX_site3833] | 11 ± 0.49
3 | TGTATACCTTAATATACACACATACAGATATATATA [CACACA_site4860] | 9.97 ± 0.18
4 | CGATTTTTTTTTTATTGTACTTGCTCGCATGCAATA [XGTACX_site4727] | 11.2 ± 0.75
5 | TTATATGTATATATATGTATATATATATATATATAG [TGCATGCA_negctrl_site461] | 9.49 ± 0.14
6 | TACAATCTTTCATTATGTACTTAACATTTTTTCTGT [XGTACX_site8752] | 11.1 ± 0.54
7 | AACAGGTCATAATTTACACACTATATATCTTATTAT [CACACA_site6461] | 10.3 ± 0.25
8 | TTCATAAGAAGGAACTGTACATATTTTTCATTTTTT [XGTACX_site6770] | 11.2 ± 0.68
9 | ACAAAAGGGGAATACACACACATATATAAATAAATA [CACACA_site7111] | 10.2 ± 0.28
10 | CATATTTTTATGAGATGTACAATAAGAAATATGTAA [XGTACX_site2389] | 11.1 ± 0.7
11 | TGTTTTATTTAGAAGGTGCACATTAATATTAAATAA | 10.6 ± 0.7
12 | ATATGCATTTTTATACGTACATATTTCTTTTCGTTA [XGTACX_site1497] | 11.5 ± 0.88
13 | ATTTATTTATATATATTATTTGTTTTAATTTACTTA [XGTACX_negctrl_site246] | 9.49 ± 0.21
14 | TATTGTTGTCTTTACACATGCAACAAAAGAAGAAAA [TGCATGCA_site911] | 10.2 ± 0.29
15 | TTATCCTTGTAACAATGTACACATTATTTAATACTT [XGTACX_site1830] | 11.3 ± 0.62
16 | TCGTGAATGATTTAAGTACACACCGGTATTTATTCA [CACACA_site1564] | 11.2 ± 0.71
17 | GCATAAACGGATAATTAATTATATTATATTATATCA [CACACA_negctrl_site1519] | 9.855 ± 0.049
18 | CATACAGATGGACACACACACACACCCACAGACAAA [CACACA_site4431] | 11.2 ± 0.93
19 | TTTTTTTTTTGATGCACACACCTGAACGAGTTAATA [CACACA_site4329] | 10.3 ± 0.37

Row | Sequence | gcPBM binding intensity (ln)
20 | TATATATAGCATATTTCACACACACCGAATGAATAT [CACACA_site9182] | 9.965 ± 0.035
21 | TTTCTTGGGAGACATGCATGTACCAGAACAAAATAA [TGCATGCA_site272] | 10.9 ± 0.64
22 | TATTCTAATATTTATACACACATAACTTTGATAAAT [CACACA_site6418] | 9.97 ± 0.11
23 | TACAAAATAGTTTACACACACATATATATACATATA [CACACA_site2615] | 10.1 ± 0.33
24 | TTTATTTTTATGGTCACACATATTTTTAAAACTATA [CACACA_site4372] | 11.3 ± 0.88
25 | TTTTTTTTTTTATATACTGGAAATATATTTAATTTA [GTGCAC_negctrl_site250] | 9.83 ± 0.27
26 | TAAAAACAAAAATGCACACATAATAAGCATATGTAT [CACACA_site3469] | 9.82 ± 0.071
27 | CACCCATAGAAACACACACACGCATAAAAAAAAAAA [CACACA_site1513] | 10.2 ± 0.43
28 | TATGTTAATCCTATTTGTACATATAATCGAATTAAA [XGTACX_site7090] | 10.8 ± 0.57
29 | GACGACTATATTAATTGTACTCAATTTAAGCATAAT [XGTACX_site2750] | 11.3 ± 0.95
30 | GAAAGGAAAAGTTGAACACACAAAGTAAACTATAAG [CACACA_site3535] | 10.13 ± 0.064
31 | TAATTATAAAAATAAAACAACCAAATTTGTTATATA [CACACA_negctrl_site750] | 9.95 ± 0.057
32 | TAATTTATAAATAATTGTACATAGTTTATTTAGATT [XGTACX_site4599] | 10.9 ± 0.43
33 | ATATATATAAAATAAAGTACCCGTAAAACCTATATG [XGTACX_site6937] | 11.3 ± 0.84
34 | AAAAAAAAAAAAAAAAAATAATAAAAAATAAAAAAA [GTGCAC_negctrl_site341] | 10.2 ± 0.35
35 | GCTATAAATACAGACGCACACATATACATACATATA [CACACA_site3329] | 10.4 ± 0.2
36 | TAATGAAGATATATAACACACAAAAGTTATAAATAT [CACACA_site6678] | 9.77 ± 0.057
37 | ATATATAATAATATATGTACATAATATTTTTTTTTT [XGTACX_site1941] | 11.3 ± 0.73
38 | GCCATTAATTTATACACACACATTAAAATTTTTTAT [CACACA_site4575] | 10.2 ± 0.13

Row | Sequence | gcPBM binding intensity (ln)
39 | AACGCCACTTCAATGGCACACACCAATTATTTTTCA [CACACA_site1026] | 10.14 ± 0.099
40 | TTTCTCCATATTAAAGTGCATTAATAACAAAAATAA [GTGCAC_site9934] | 10.2 ± 0.59
41 | TATCCTACATTAACAAGTACAAAGAGATCCTACGTA [XGTACX_site4252] | 11 ± 0.6
42 | AAGAATATATAGGACACACATACAATAATAAATATA [CACACA_site4119] | 10.7 ± 0.54
43 | TATATACAGATATATACACACATATTTATATTTTAT [CACACA_site7734] | 9.72 ± 0.2
44 | GTATAGAGAAAAAACTGTACTTTATATAAATATTTA [XGTACX_site3972] | 11.2 ± 0.76
45 | TATTAATAATATAATAGTACTTTCACTGTAAATTTA [XGTACX_site6419] | 10.8 ± 0.38
46 | TCATTCGAATAAATTGCACACATGACATCCGTTGTA [CACACA_site2587] | 9.88 ± 0.13
47 | AAAAAAAAAAAAAATATACACACTAATATATTTTTT [CACACA_site815] | 9.9 ± 0.11
48 | ATATATATATTAATTACACACAAAAAAAAAAAAAAA [CACACA_site1165] | 9.93 ± 0.54
49 | CTTTTTTTTATGAACAGTACAGAAATATATATATAC [XGTACX_site5613] | 10.9 ± 0.6
50 | TTTATATAATGGAAAAGTACTCAGGAAATTTATACA [XGTACX_site3635] | 11.2 ± 0.73
51 | CATATCTCTTATTAATGTACATTTTTAAAAGTAAAT [XGTACX_site2847] | 11 ± 0.69
52 | CAAGAACAAAAAATATGTACATATAATTATATATAT [XGTACX_site2082] | 11.3 ± 0.97
53 | TGTAATATTTTATAAAGTACATTATAATATAATTCA [XGTACX_site2961] | 11 ± 0.76
54 | TTAAAATTAAAAATAGGTACACATATGAACAAGGAC [XGTACX_site1180] | 11.5 ± 0.78
55 | TTATATGATATATGACGTACATATTAATAACATCTA [XGTACX_site6716] | 11.4 ± 0.99
56 | TTGTTCCAATAAAATCGTACAATTAAACAACCAAAC [XGTACX_site5759] | 11.2 ± 0.7
57 | TTTTTTTCTATAATACACCAGAAAAAAAAATTAAAA [TGCATGCA_negctrl_site257] | 10.2 ± 0.38

— the supplement of paper PMC11417369
